{"source": "paper PMC4336329", "about": "(PLoS ONE, 2015)", "note": "The campaign covered roughly 310,000 compounds. About 14,000 (4.5%) showed an effect of 50% or more. Effects have a minus sign here. This is one part of the list.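 Note: peak tail current of the secondary pulse compared with the same well before compound.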"}
{"biological_target": "human ether-à-go-go-related gene (hERG) potassium channel (human, UniProt Q12809)", "sequence (Q12809 whole entry, looked up)": "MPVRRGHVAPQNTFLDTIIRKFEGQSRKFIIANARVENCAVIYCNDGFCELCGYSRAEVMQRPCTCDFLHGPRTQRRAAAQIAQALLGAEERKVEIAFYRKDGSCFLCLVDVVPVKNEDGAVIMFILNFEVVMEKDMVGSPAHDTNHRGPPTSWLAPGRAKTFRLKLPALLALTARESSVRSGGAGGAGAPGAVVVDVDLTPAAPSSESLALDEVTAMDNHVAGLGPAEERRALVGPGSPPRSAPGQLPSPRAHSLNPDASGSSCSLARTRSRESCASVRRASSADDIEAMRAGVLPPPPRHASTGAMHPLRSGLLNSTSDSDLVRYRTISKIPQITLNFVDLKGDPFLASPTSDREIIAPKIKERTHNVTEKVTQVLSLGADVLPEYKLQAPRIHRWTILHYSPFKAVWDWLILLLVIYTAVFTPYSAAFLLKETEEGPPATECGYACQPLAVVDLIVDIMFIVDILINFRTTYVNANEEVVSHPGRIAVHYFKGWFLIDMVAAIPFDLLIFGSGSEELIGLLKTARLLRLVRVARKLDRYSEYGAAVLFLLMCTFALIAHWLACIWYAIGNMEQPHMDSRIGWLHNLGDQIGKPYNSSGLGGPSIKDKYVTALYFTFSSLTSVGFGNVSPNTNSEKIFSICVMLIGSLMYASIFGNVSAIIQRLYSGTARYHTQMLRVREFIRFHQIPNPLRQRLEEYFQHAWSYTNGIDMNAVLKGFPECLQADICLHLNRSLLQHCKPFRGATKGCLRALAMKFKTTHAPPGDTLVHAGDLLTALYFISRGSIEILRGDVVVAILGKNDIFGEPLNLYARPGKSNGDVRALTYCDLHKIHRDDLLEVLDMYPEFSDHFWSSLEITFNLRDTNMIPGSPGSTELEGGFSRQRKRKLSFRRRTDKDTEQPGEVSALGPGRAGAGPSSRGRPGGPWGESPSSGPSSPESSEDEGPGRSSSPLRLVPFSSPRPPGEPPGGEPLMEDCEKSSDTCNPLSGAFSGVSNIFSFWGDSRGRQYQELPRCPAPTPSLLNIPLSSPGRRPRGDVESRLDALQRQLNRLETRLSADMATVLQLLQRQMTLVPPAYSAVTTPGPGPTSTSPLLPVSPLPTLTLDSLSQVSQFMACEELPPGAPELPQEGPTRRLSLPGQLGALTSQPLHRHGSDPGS", "experiment": "primary screen, population patch clamp on CHO cells stably expressing hERG", "units": {"hERG current change (%, negative = inhibition) at 10uM": "%"}}
{"smiles": "Cc1n[nH]c(C)c1S(=O)(=O)N1CCCC(C(=O)NCC2COc3ccccc3O2)C1", "note": "(stereo not shown)", "hERG current change (%, negative = inhibition) at 10uM": 0.365}
{"smiles": "O=C(Cn1ncc2c3ccccc3n(Cc3ccccc3F)c2c1=O)N1CCN(c2ccccn2)CC1", "hERG current change (%, negative = inhibition) at 10uM": -7.01}
{"smiles": "Cc1ccc(C(O)C(=O)c2ccco2)cc1", "note": "(stereo not shown)", "hERG current change (%, negative = inhibition) at 10uM": 18.4}
{"smiles": "CN(C)C(=O)CCC(=O)N1CCCC(C(=O)c2ccc3c4c(cccc24)CC3)C1", "note": "(stereo not shown)", "hERG current change (%, negative = inhibition) at 10uM": -20.2}
{"smiles": "C[C@@H](O)C1NC(=O)[C@H](CCCCN)NC(=O)c2cc([N+](=O)[O-])cc(I)c2NCCC[C@@H](C(N)=O)NC1=O", "note": "(stereo partly shown)", "hERG current change (%, negative = inhibition) at 10uM": 18}
{"smiles": "CC(C)c1ccc(NC(=S)NCc2ccc3c(c2)OCO3)cc1", "hERG current change (%, negative = inhibition) at 10uM": -12.6}
{"smiles": "Cc1cc(OCc2cc(C(=O)N(Cc3nccn3C)C(C)C)no2)cc(C)c1Cl", "hERG current change (%, negative = inhibition) at 10uM": -58.5}
{"smiles": "Cc1occc1C(=O)N1CCN(S(=O)(=O)c2ccccc2)CC1", "hERG current change (%, negative = inhibition) at 10uM": 8.32}
{"smiles": "CNC(=O)CN(Cc1ccccc1)S(=O)(=O)c1ccccc1", "hERG current change (%, negative = inhibition) at 10uM": -6.77}
{"smiles": "CC1(C)SCC2C(=O)N3C(CSC3(C)C)C(=O)N21", "note": "(stereo not shown)", "hERG current change (%, negative = inhibition) at 10uM": -3.42}
{"smiles": "COc1ccccc1N(CC(O)COc1ccccc1)S(=O)(=O)c1ccccc1", "note": "(stereo not shown)", "hERG current change (%, negative = inhibition) at 10uM": -10.3}
{"smiles": "O=C(COc1ccccc1)c1cn(CC(=O)N2CCCC2)c2ccccc12", "hERG current change (%, negative = inhibition) at 10uM": -0.488}
{"smiles": "NNC(=O)c1cnn(Cc2ccccc2)c1N", "hERG current change (%, negative = inhibition) at 10uM": 3.58}
{"smiles": "O=C(NCCCN1CCOCC1)c1cc(-c2ccc(F)cc2)nc2ccccc12", "hERG current change (%, negative = inhibition) at 10uM": -27.5}
{"smiles": "Cc1cc(N2C(=O)C(=O)/C(=C(/O)c3ccc(F)cc3)C2c2ccc(F)cc2)no1", "note": "(stereo not shown)", "hERG current change (%, negative = inhibition) at 10uM": 23.9}
{"smiles": "CC1=Nc2cc(C(=O)O)ccc2Sc2c(C)ccc(C)c21", "hERG current change (%, negative = inhibition) at 10uM": -7.58}
{"smiles": "Cc1cnc(C(=O)OCC(=O)Nc2oc(-c3ccccc3)c(-c3ccccc3)c2C#N)cn1", "hERG current change (%, negative = inhibition) at 10uM": -8.22}
{"smiles": "COc1ccc(CN2C(=O)c3cccnc3C2=O)cc1S(=O)(=O)N1CCCC(C)C1", "note": "(stereo not shown)", "hERG current change (%, negative = inhibition) at 10uM": -0.978}
{"smiles": "Cc1ccnc(N2CCCC(C(=O)Nc3ccc(C)c(C)c3)C2)n1", "note": "(stereo not shown)", "hERG current change (%, negative = inhibition) at 10uM": 6.45}
{"smiles": "COc1cc(Cl)c(C)cc1NC(=O)CSc1ccc(C)cc1", "hERG current change (%, negative = inhibition) at 10uM": 12.7}
{"smiles": "O=C(COc1ccc(Cl)cc1)Nc1ccc2oc(=O)ccc2c1", "hERG current change (%, negative = inhibition) at 10uM": 3.7}
{"smiles": "C/C(CC(=O)N1CCCC1)=N\\NC(=O)c1cc2ccccc2cc1O", "hERG current change (%, negative = inhibition) at 10uM": 4.98}
{"smiles": "O=C(O)c1cccc(CN2C(=O)S/C(=C/c3cccc([N+](=O)[O-])c3)C2=O)c1", "hERG current change (%, negative = inhibition) at 10uM": 10.3}
{"smiles": "COc1ccc(OC)c(C2N(c3ccc(Cl)cc3)C(=O)C3CCCN32)c1", "note": "(stereo not shown)", "hERG current change (%, negative = inhibition) at 10uM": 19.3}
{"smiles": "Cc1cc(C)nc(/N=C2\\NC(=O)CC(C(=O)O)N2CCc2c[nH]c3ccccc23)n1", "note": "(stereo not shown)", "hERG current change (%, negative = inhibition) at 10uM": 12.8}
{"smiles": "CC(C)(C)c1[nH]nc2c1C(c1ccc(OC(=O)c3ccco3)cc1)C(C#N)=C(N)O2", "note": "(stereo not shown)", "hERG current change (%, negative = inhibition) at 10uM": 11.1}
{"smiles": "CC1(C)Cc2cccc(OCC(=O)N3CCN(S(=O)(=O)c4ccc(F)cc4)CC3)c2O1", "hERG current change (%, negative = inhibition) at 10uM": -21.6}
{"smiles": "Cc1csc2nc(CN3CCN(CC(=O)N(C)C)CC3)cc(=O)n12", "hERG current change (%, negative = inhibition) at 10uM": 10}
{"smiles": "O=C(Nc1ccc(Cl)c(C(F)(F)F)c1)NC1CC2CCCC(C1)N2C1CC1", "note": "(stereo not shown)", "hERG current change (%, negative = inhibition) at 10uM": -10.1}
{"smiles": "CCOC(=O)N1CCN(C(=O)COC(=O)COc2c(C)cc(C)cc2C)CC1", "hERG current change (%, negative = inhibition) at 10uM": -9.8}
{"smiles": "CC1CC(NNC(=O)c2ccccc2)=Nc2ccccc2N1C", "note": "(stereo not shown)", "hERG current change (%, negative = inhibition) at 10uM": -1.15}
{"smiles": "O=C1C2C3C=CC(C3)C2C(=O)N1c1nc2ccccc2s1", "note": "(stereo not shown)", "hERG current change (%, negative = inhibition) at 10uM": -1.49}
{"smiles": "CCOc1ccc(Cc2nnc(SCC(=O)Nc3ccc(C(C)=O)cc3)[nH]c2=O)cc1", "hERG current change (%, negative = inhibition) at 10uM": 13.2}
{"smiles": "Cc1[nH]ncc1-c1nc2ccccc2[nH]1", "hERG current change (%, negative = inhibition) at 10uM": 8.35}
{"smiles": "CC(=O)Nc1cccc(C(=O)OCC(=O)N2CCC(c3ccccc3)=N2)c1", "hERG current change (%, negative = inhibition) at 10uM": -19.2}
{"smiles": "O=C(O)CN1C(=O)CSC1=S", "hERG current change (%, negative = inhibition) at 10uM": 21.2}
{"smiles": "O=C(NCc1ccccc1F)C1CCN(C(=O)c2sccc2-n2cccc2)CC1", "hERG current change (%, negative = inhibition) at 10uM": -3.91}
{"smiles": "CCOc1ccccc1NC(=O)c1cc(C(=O)Nc2ccccc2OCC)cc(N2C(=O)CCC2=O)c1", "hERG current change (%, negative = inhibition) at 10uM": 6.64}
{"smiles": "C=CCn1c(SC(C)C(=O)c2c(N)n(C)c(=O)n(C)c2=O)nnc1-c1ccoc1C", "note": "(stereo not shown)", "hERG current change (%, negative = inhibition) at 10uM": 0.626}
{"smiles": "CC(=O)Nc1ccc(NC(=O)CC2Nc3cccc4cccc(c34)NC2=O)cc1", "note": "(stereo not shown)", "hERG current change (%, negative = inhibition) at 10uM": 8.18}
{"smiles": "Cc1cc(C)cc(N(CC(=O)Nc2ccc(C(F)(F)F)cc2)S(=O)(=O)c2c(C)[nH]c(=O)[nH]c2=O)c1", "hERG current change (%, negative = inhibition) at 10uM": -88}
{"smiles": "CC(=O)N1CCN2C(=O)C1CCCC(=O)c1cc(C(C)C)ccc12", "note": "(stereo not shown)", "hERG current change (%, negative = inhibition) at 10uM": 8.03}
{"smiles": "CCCCOC(=O)c1ccc(NC(=O)c2nn(C)cc2Br)cc1", "hERG current change (%, negative = inhibition) at 10uM": 6.19}
